Assay results taken from PMC4336329 (PLoS ONE, 2015).
Among all 310,000 compounds or so, about 2,200 (0.71%) showed an effect of 50% or more. Effects have a minus sign here. Some of the results follow.

biological target: human ether-à-go-go-related gene (hERG) potassium channel (human, UniProt Q12809); experiment: primary screen, population patch clamp on CHO cells stably expressing hERG
Sequence (Q12809 whole entry, looked up): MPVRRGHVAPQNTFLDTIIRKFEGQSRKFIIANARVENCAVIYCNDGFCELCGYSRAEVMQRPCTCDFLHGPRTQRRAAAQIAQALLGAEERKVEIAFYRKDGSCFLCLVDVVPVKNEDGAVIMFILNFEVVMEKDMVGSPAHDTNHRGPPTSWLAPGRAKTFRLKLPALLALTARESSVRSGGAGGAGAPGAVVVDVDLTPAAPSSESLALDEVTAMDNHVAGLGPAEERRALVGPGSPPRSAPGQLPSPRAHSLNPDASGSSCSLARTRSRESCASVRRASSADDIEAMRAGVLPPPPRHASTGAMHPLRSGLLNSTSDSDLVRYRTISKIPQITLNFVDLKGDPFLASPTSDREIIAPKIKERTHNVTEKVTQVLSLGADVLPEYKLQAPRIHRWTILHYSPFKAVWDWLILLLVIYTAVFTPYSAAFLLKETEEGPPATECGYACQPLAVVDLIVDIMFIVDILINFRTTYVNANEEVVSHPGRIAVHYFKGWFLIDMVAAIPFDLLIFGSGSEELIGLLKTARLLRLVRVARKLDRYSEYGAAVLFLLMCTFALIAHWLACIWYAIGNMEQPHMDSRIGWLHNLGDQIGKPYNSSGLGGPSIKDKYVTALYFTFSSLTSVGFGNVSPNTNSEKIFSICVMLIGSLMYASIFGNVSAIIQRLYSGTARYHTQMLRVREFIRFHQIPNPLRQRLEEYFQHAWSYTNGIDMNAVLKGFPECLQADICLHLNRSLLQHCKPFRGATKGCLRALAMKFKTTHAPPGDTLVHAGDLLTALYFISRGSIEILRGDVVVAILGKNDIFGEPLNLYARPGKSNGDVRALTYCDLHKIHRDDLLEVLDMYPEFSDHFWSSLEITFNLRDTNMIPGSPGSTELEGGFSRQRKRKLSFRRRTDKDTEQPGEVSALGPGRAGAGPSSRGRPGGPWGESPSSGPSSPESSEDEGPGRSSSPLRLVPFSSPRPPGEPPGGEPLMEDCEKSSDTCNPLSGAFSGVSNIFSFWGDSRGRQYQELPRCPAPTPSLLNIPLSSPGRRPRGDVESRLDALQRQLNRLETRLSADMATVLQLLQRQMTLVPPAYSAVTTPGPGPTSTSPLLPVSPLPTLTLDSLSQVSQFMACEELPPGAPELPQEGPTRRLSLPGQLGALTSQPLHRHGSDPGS

Structure (SMILES) | hERG current change (%, negative = inhibition) at 1uM
O=C(NC1CCCCC1)N1CCN(C(=O)c2ccco2)CC1 | 3.28%
CCOC(=O)c1ccc(Nc2ncccc2[N+](=O)[O-])cc1 | 13.3%
CCCCN(CC(=O)NC(C)(C)C)C(=O)C(=O)Nc1ccc2c(c1)OCCO2 | 4.53%
CC1CN(C(=O)c2ccc(COc3ccc4ccccc4c3)o2)CC(C)O1 (stereo not drawn) | 7.64%
CCCCCCCCCCCCS(=O)(=O)CCC(=O)O | 7.86%
Cc1ccc(-c2nnnn2C2C/C(=N\NC(N)=S)C3OCC2O3)cc1 (stereo not drawn) | 4.91%
Cc1cccc2c1[nH]c1nc(N/N=C\c3ccco3)nnc12 | 14.8%
COc1ccc(OCC(=O)N/N=C/c2cccc3cccnc23)cc1 | 14.2%
O=c1ccc2cc(S(=O)(=O)N3CCOCC3)ccc2o1 | 9.59%
CCOC(=O)C1=C(O)/C(=C\c2ccc(OC)c(OC)c2)N=C1C | 12.6%
CCOC(=O)c1c(NC(C)=O)sc(C(=O)NC2CCCC2)c1C | 14.5%
O=C(O)C1C(c2ccccc2)C(C(=O)Oc2ccc(O)cc2)C1c1ccccc1 (stereo not drawn) | 3.6%
Cc1nn(-c2ccccc2)c2sc(C(=O)OCn3nnc4ccccc4c3=O)cc12 | 6.84%
CC(OC(=O)c1cccnc1SCc1cc(=O)n2ccccc2n1)c1ccccn1 (stereo not drawn) | -5.64%
COc1cccc(-n2c(C)nc3cc(C(=O)O)ccc32)c1 | -2.23%
O=C(O)C(=O)O.O=C(c1ccc([N+](=O)[O-])cc1)N1CCN(Cc2ccccc2[N+](=O)[O-])CC1 | -70.1%
COc1cc(NC(=O)CN2C(=O)CN(C)C2=O)c(C)cc1[N+](=O)[O-] | 19.2%
CN(C(=O)c1ccc(S(=O)(=O)N2CCCCC2)cc1)C1CCS(=O)(=O)C1 (stereo not drawn) | -3.22%
CN(C(=O)c1cccs1)c1ccccc1C(=O)O | 12.2%
Cc1cc(C)n(-c2nc3c(c(=O)[nH]c(=O)n3C)n2CC(C)C)n1 | 5.84%
COc1ccc(N(CC(=O)NC2CC3CCC2C3)S(=O)(=O)c2ccc(C)cc2)cc1 (stereo not drawn) | 14.7%
O=C(Cn1cnc2cc([N+](=O)[O-])ccc2c1=O)NC1CCS(=O)(=O)C1 (stereo not drawn) | 16.4%
C=CCOc1cccc(C2C(C(=O)c3ccc(C)o3)=C(O)C(=O)N2CCCn2ccnc2)c1 (stereo not drawn) | 14.2%
COCc1cc(C)nc(NCCc2ccccc2)c1C#N | 13.5%
